Laboratory results from PubChem BioAssay AID588456 (National Center for Advancing Translational Sciences (NCATS), 2011).
The whole screen tested about 390,000 compounds, of which about 55 (0.01%) were called active. This list was built around the results that the source calls inconclusive (neither active nor inactive); the mix of calls is not that of the screen. Calls follow the shape of the dose curve; as a rule, active = well fitted inhibition curve with a large enough effect; inconclusive = small, poorly fitted or top-dose-only effect; inactive = no such curve, though single readings can be large or run the other way. A potency beside an inconclusive call is a rough fit, not a confirmed value.

Molecular target: Thioredoxin reductase 1, cytoplasmic (Rattus norvegicus) (UniProt O89049)
UniProt O89049, sequence (O89049 whole entry, looked up): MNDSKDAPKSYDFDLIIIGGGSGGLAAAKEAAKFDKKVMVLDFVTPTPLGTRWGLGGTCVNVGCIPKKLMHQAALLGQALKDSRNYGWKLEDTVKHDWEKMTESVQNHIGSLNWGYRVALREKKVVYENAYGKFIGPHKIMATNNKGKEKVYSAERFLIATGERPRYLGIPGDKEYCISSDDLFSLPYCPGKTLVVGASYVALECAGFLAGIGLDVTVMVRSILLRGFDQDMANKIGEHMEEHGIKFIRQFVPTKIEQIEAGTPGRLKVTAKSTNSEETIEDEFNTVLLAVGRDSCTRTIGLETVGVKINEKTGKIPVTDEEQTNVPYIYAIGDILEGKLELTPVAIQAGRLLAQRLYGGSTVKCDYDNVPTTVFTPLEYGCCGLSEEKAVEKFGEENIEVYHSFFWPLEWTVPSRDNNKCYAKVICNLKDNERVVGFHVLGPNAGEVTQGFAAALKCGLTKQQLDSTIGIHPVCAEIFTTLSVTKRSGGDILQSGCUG
Experiment: qHTS Assay for Substrates of Mammalian Selenoprotein Thioredoxin Reductase 1 (TrxR1): qHTS; also: nearly all actives have a fitted effect of over 50% in size
Conditions: purified TrxR1 substrate turnover, NADPH consumption readout; series mostly up to 114 µM
Method in brief: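 Rat TrxR1, dispensed at 90 nM, was prereduced with 400 uM NADPH (final) for 5 min at ~22 deg C, then incubated with compound 15 min before 400 uM selenite. A first-read NADPH fluorescence drop versus no-compound background flagged substrates.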
Potency is read from the fitted curve at half-maximal effect; tags tell the direction and shape of the fitted curve.

| SMILES | Potency |
| --- | --- |
| CCN1C(=S)SC(=O)C1=C1C=C(C)N(CCO)C(C)=C1 | inconclusive: 28.2 µM [inhibitor, partial curve, poor fit] |
| COc1cc(C(CC(=O)Nc2cc(C)ccc2C)N2Cc3ccccc3C2=O)cc(OC)c1OC (stereo unspecified) | inconclusive: 39.8 µM [inhibitor, single point] |
| CCN(CC)CCCN(c1ccccc1)C1Cc2ccccc2C1 | inconclusive: 16.8 µM [inhibitor, partial curve, poor fit] |
| O=C(O)Cn1nnc2ccccc21 | inactive |
| Cc1[nH]c2ccccc2c1/C=N/NC(=O)c1cccc(F)c1 | inconclusive: 39.8 µM [inhibitor, single point] |
| COC(=O)c1sc(S(=O)(=O)N2CCCCC2C)c(C(=O)OC)c1C (stereo unspecified) | inconclusive: 89.1 µM [inhibitor, partial curve, poor fit] |
| Cc1ccccc1Cc1c(C)nc2c(C(=O)NCc3ccco3)cnn2c1C | inactive |
| O=C(N/N=C/C=N/NC(=O)c1ccco1)c1ccco1 | inconclusive: 79.4 µM [inhibitor, partial curve, poor fit] |
| CCN1CCS/C1=C/C=C/C1=[N+](CC)CCS1 | inconclusive: 35.5 µM [inhibitor, partial curve, poor fit] |
| Cc1cnc(/C=C/c2ccc(N(C)C)cc2)cn1 | inconclusive: 89.1 µM [inhibitor, partial curve, poor fit] |
| CCc1cc(=O)oc2c(C)c(OCC(=O)NCc3ccccn3)ccc12 | inconclusive: 39.8 µM [inhibitor, single point] |
| CN(C)c1ccc(/C=N/N2C(=S)SC(C)(C)C2N(O)C(=O)Nc2ccc([N+](=O)[O-])cc2)cc1 (stereo unspecified) | inconclusive: 79.4 µM [inhibitor, partial curve, poor fit] |
| CN1CCN(C2=C(Cl)C(=O)N(c3ccc(Cl)c(Cl)c3)C2=O)CC1 | inactive |
| Cn1nc(-c2cccnc2)nc2c(=O)n(C)c(=O)nc1-2 | inconclusive: 56.2 µM [inhibitor, partial curve, poor fit] |
| Nc1nnc(-c2cccc(Cl)c2Cl)c(N)n1 | inconclusive: 42.3 µM [inhibitor, partial curve, poor fit] |
| CCOC(=O)C1=C(C)N=c2s/c(=C\c3ccc(O)c([N+](=O)[O-])c3)c(=O)n2C1c1ccccc1OC (stereo unspecified) | inconclusive: 79.4 µM [inhibitor, partial curve, poor fit] |
| CN1CCc2c(sc(/N=C/c3ccco3)c2C(N)=O)C1 | inactive |
| COc1ccccc1NC(=O)CSc1nc(O)cc(=O)n1C | inactive |
| COc1cc2ncc3c(-c4ccc(C)cc4)nn(-c4ccc(F)cc4F)c3c2cc1OC | inconclusive: 6.31 µM [inhibitor, single point] |
| Cc1cccc(CSc2nnc(CCCCCNC(=O)OC(C)(C)C)o2)c1 | inconclusive: 89.1 µM [inhibitor, single point] |
| Cc1cc(O)c(C=Nc2cccc(Cl)c2)c(=O)o1 | inactive |

| SMILES | Potency |
| --- | --- |
| O=C1c2ccccc2-c2cc([N+](=O)[O-])c([N+](=O)[O-])cc21 | inconclusive: 79.4 µM [inhibitor, partial curve] |
| Nc1nnc(CSCc2ccc(Cl)cc2Cl)s1 | inconclusive: 31.6 µM [inhibitor, partial curve, poor fit] |
| CCN(CC)c1ccc(NC(=S)NC(=O)c2cccs2)cc1 | inactive |
| CC(=O)N(C1=C(Cl)C(=O)c2ccccc2C1=O)c1ccc(C(=O)O)cc1 | inconclusive: 56.2 µM [inhibitor, partial curve] |
| COc1ccc(C(=S)N2CCOCC2)cc1OC(=O)c1ccc([N+](=O)[O-])cc1 | inconclusive: 89.1 µM [inhibitor, single point] |
| Cc1ccc(S(=O)(=O)Nc2cccc3ncccc23)cc1 | inconclusive: 89.1 µM [inhibitor, partial curve, poor fit] |
| COc1cccc(Cn2c(-c3nonc3NC(C)=O)nc3ccccc32)c1 | inactive |
| CN=C(c1ccco1)n1c(=S)nc(-c2ccco2)n(C)c1=S | inactive |
| CN1C(=O)/C(=C/c2cc3c(cc2Br)OCO3)NC1=S | inconclusive: 89.1 µM [inhibitor, single point] |
| C#CCOCCOCCOCCNc1nc(N2CCN(C(=O)[C@H](CCCCN)n3cc([C@@H](N)CC(C)C)nn3)CC2)nc(N2CCN(C(=O)[C@H](Cc3cc4ccccc4[nH]3)n3cc([C@@H](N)Cc4ccc(O)cc4)nn3)CC2)n1 | inactive |
| COC(=O)CCCC1=CC2=CC(=O)C(C)(OC(=O)c3cccs3)C(=O)C2=CN1CCN1CCOCC1 (stereo unspecified) | inconclusive: 89.1 µM [inhibitor, partial curve, poor fit] |
| COc1ccc2cc3[n+](cc2c1OC)CCc1cc2c(cc1-3)OCO2 | inconclusive: 89.1 µM [inhibitor, single point] |
| CC(C)(C)CN1CCC(Oc2cccc(C(=O)N3CCC[C@H]3CO)c2)CC1 | inconclusive: 89.1 µM [inhibitor, partial curve, poor fit] |
| CSc1cc(CS(=O)(=O)c2ccccc2)nc(-c2ccccc2)n1 | inconclusive: 5.62 µM [inhibitor, partial curve, poor fit] |
| N#Cc1c(C(F)(F)F)cc(-c2ccccc2)n(N)c1=O | inconclusive: 31.6 µM [inhibitor, partial curve, poor fit] |
| O=C1CNC(=O)/C1=C\c1ccc(O)cc1 | inconclusive: 39.8 µM [inhibitor, partial curve, poor fit] |
| CCn1nnnc1SCC(=O)Nc1ccc(N(C)C)cc1 | inconclusive: 89.1 µM [inhibitor, single point] |
| CCOC1=C/C(=C/c2c(N)n3nc(S(=O)(=O)CC)sc3nc2=O)C=CC1=O | inconclusive: 44.7 µM [inhibitor, partial curve, poor fit] |
| CCc1nc(N2CCN(C(=O)CCl)CC2)c2c3c(sc2n1)CC(C)CC3 (stereo unspecified) | inactive |
| O=C(O)c1cc([N+](=O)[O-])ccc1NCCCc1ccccc1 | inconclusive: 0.752 µM [inhibitor, partial curve, poor fit] |
